The target in this test is T1, biotinylated truncated STAT6 (123-632)-avi (Homo sapiens, UniProt P42226).
T1 sequence (P42226 123-632 limits assumed): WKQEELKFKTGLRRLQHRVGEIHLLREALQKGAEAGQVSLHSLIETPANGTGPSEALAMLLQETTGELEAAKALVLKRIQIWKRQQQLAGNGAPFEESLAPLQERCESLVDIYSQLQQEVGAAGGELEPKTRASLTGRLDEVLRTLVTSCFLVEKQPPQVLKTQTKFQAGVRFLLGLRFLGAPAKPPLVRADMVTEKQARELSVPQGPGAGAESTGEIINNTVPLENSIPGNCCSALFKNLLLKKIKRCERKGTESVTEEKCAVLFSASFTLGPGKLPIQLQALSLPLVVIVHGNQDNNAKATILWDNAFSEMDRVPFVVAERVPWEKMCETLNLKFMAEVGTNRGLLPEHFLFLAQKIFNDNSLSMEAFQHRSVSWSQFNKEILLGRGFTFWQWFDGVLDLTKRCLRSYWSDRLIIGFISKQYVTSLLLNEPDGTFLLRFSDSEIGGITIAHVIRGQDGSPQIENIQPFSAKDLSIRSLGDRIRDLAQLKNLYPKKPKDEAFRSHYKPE
In words: Homogenous Time-Resolved Fluorescence (HTRF) binding assay. The conditions noted are these: 0.15 nM biotinylated truncated STAT6 (123-632)-avi, 20 nM fluorescein-labeled probe, 30 minutes room temperature. On the technique in general: In TR-FRET formats the signal depends on donor and acceptor labels being close together.

This passage reports IC50 results from patent US20250214977A1, “STAT6 INHIBITORS AND USES THEREOF” (Kymera Therapeutics, Inc., priority 2024, published 2025).

One may read the IC50 as the point on the concentration scale where inhibition reaches its midpoint. Read a low IC50 as greater potency in that assay. Turning to `CN(C)C(=O)c1cc2c(-c3ccncc3)cc(C3=CCCN(C(=O)CCn4ccnn4)C3)cc2[nH]1` [Example I-1676], the IC50 is under 0.1 µM. Regarding `Cc1ccccc1-c1cc(C2=CCCN(C(=O)CCn3ccnn3)C2)cc2[nH]c(C(=O)N(C)C)cc12` [Example I-1680], the IC50 is under 0.1 µM.
